Measured values reported in PubChem BioAssay AID190 (DTP/NCI, 2004).
Toxic doses and inconclusive results are not listed. Not every entry of the source has a single result; some have several. This is not the full list of results. The source may hold further records. Values given together differ for a reason that is not stated; some may be repeats, others may stem from another dose, organism or construct than stated. Marks such as (2×) give the number of equal values in this list.

System: AKR/Lw mice, AKR lymphoma ip, median survival T/C
Assay: NCI In Vivo Anticancer Drug Screen. Data for tumor model Lymphoma AKR (Transplanted) (intraperitoneal) in AKR/Lw mice
Details: endpoint: median survival time, higher = longer survival
Method: The antitumor activity of compounds was measured in mice bearing transplantable tumors. Survival or tumor size were measured and the results are expressed as the measurement made in the treated group (T) divided by the measurement made in the vehicle treated control group (C). The tumor model used in this assay is Lymphoma AKR (Transplanted) (intraperitoneal) in AKR/Lw mice

O=c1[nH]cc(F)c(=O)[nH]1
T/C (dose: 30.0 mg/kg/injection, schedule: Q01DX001 (ip), vehicle: saline): 102 % of control, 111 % of control, 158 % of control
T/C (dose: 40.0 mg/kg/injection, schedule: Q04DX003 (ip), vehicle: saline): 97 % of control and 169 % of control (2×)
T/C (dose: 120.0 mg/kg/injection, schedule: Q01DX001 (ip), vehicle: saline): 111 % of control, 160 % of control, 164 % of control

CC1CCC(NC(=O)N(CCCl)N=O)CC1 (configuration not stated)
T/C (dose: 24.0 mg/kg/injection, schedule: Q01DX001 (ip), vehicle: saline): 115 % of control and 150 % of control

CN(C)/N=N/c1nc[nH]c1C(N)=O
T/C (dose: 400.0 mg/kg/injection, schedule: Q01DX001 (ip), vehicle: saline): 118 % of control, 121 % of control, 172 % of control

Cc1c2ccncc2c(C)c2c1[nH]c1ccccc12
T/C (dose: 12.5 mg/kg/injection, schedule: Q01DX009 (ip), vehicle: saline): 117 % of control and 151 % of control

CCCCCCCCCCCCCCCC(=O)OCC1OC(n2ccc(N)nc2=O)C(O)C1O (configuration not stated)
T/C (dose: 37.5 mg/kg/injection, schedule: Q01DX001 (ip), vehicle: saline with Tween-80): 106 % of control and 158 % of control
